From PubChem BioAssay AID1345082 (National Center for Advancing Translational Sciences (NCATS), 2018)
Hit rate of the full screen: of about 94,000 compounds, about 4,000 (4.3%) were called active. The shares of active, inactive and inconclusive entries below differ from those in the screen. The call rests on the fitted dose curve; in most records, active means well fitted inhibition curve with a large enough effect; inconclusive means small, poorly fitted or top-dose-only effect; inactive means no such curve, though single readings can be large or run the other way. Potencies beside an inconclusive call are fits to weak or partial responses and may not hold up.

test: Cytotoxic Profiling in NIH 3T3 Cell Line of Diverse Libraries Using Quantitative High-Throughput Screening; conditions: NIH 3T3 viability, CellTiter-Glo ATP luminescence, 48-72 h; activity change, negative = cytotoxicity: at 96.7 µM (top of the series) unless noted; series mostly up to 96.7 µM; further: nearly all actives have a fitted effect of over 55% in size
Procedure, shortened: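 ATP-dependent luminescence (CellTiter-Glo) served as the viability signal for NIH 3T3 cells treated with compound for 48 or 72 hr at 37 °C.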
On the % scale 0 is the no-effect control and ±100 the full control effect; potency means the concentration at half of the fitted maximal effect; tags describe the fitted curve by direction and shape.

Row | SMILES | activity change, negative = cytotoxicity | Potency | outcome
1 | Cc1nn2c(c1-c1ccccc1[S+](C)(=O)[O-])N(Cc1ccc3[nH]ccc3c1)CCC2 | inactive: -16.4% [at 138 µM] |  | 
2 | COc1ccc(-c2cc3c(ccn3C)c(C(=O)NCc3cccnc3)n2)cc1 |  | inconclusive: 56.2 µM [inhibitor, partial curve, poor fit] | 
3 | O=C(c1ccccc1)N1CCC(n2cc(-c3nc(-c4ccccc4)no3)nn2)CC1 |  | active: 39.8 µM | 
4 | COc1ccccc1C(=O)N1CCCC1C(=O)N1CCC(c2nc3ncccc3[nH]2)CC1 (stereo not drawn) |  | inconclusive: 44.7 µM [inhibitor, partial curve, poor fit] | 
5 | COc1cccc(OC)c1CN1C[C@@H](CO)[C@H](c2nc(C)no2)C1 | inactive: -20.6% |  | 
6 | COCCNc1c(-c2noc(C)c2C(=O)Nc2ccc(Cl)cc2)cnn1C |  | inconclusive: 11.2 µM [inhibitor, full curve] | 
7 | O=C(c1cc2ccccc2[nH]1)N1CCc2c(n(Cc3cccnc3)n(-c3ccccc3)c2=O)C1 |  | inconclusive: 31.6 µM [inhibitor, partial curve, poor fit] | 
8 | O=C(c1ccccn1)N1CCc2nc(C3CC3)nc(-c3ccc(Cl)cc3)c2C1 |  | active: 31.6 µM | 
9 | COc1ccccc1-c1[nH]nc2ncc(CNc3ccccn3)nc12 |  | inconclusive: 89.1 µM [inhibitor, partial curve, poor fit] | 
10 | CC(=O)N1CCCN(C(=O)c2cnc3c(c2)N(C(=O)CCc2ccccc2)CCC3)CC1 |  | inconclusive: 112 µM [inhibitor, single point] | 
11 | COCC(=O)Nc1ccc(-n2ccnc2-c2ccc(O)c(OC)c2)cc1C | inactive: -22.4% |  | 
12 | O=C(c1cccs1)N1CCC2(CC1)CC(N(Cc1ccc(F)cc1)C1CC1)CCO2 (stereo not drawn) |  | inconclusive: 44.7 µM [inhibitor, partial curve, poor fit] | 
13 | Cc1nc(N2CCN(C(=O)c3ccc(C(C)(C)C)cc3)CC2)cc(C(F)(F)F)n1 |  | inconclusive: 25.1 µM [inhibitor, partial curve, poor fit] | 
14 | O=S(=O)(Cc1ccccc1)N1CC(c2nnc(-c3ccncc3)o2)C2(CCOCC2)C1 (stereo not drawn) | inactive: 1.88% |  | 
15 | COc1cccc(C(=O)N2CCC(N3C[C@H](O)C[C@H]3C(=O)N3CCc4ccccc4C3)CC2)c1 | inactive: -24.2% |  | 
16 | Cc1noc(C)c1-c1cc2c(cc(C)n2C)c(NCCN(C)C)n1 |  | inconclusive: 56.2 µM [inhibitor, partial curve, poor fit] | 
17 | C=CCCC(=O)N1CCOc2c(O)cc(-c3nc4ccccc4s3)cc2C1 |  | inconclusive: 44.7 µM [inhibitor, partial curve, poor fit] | 
18 | COc1ccccc1Nc1ccnc(N2CCC(C(=O)N3CCC(c4ccccc4)CC3)CC2)n1 |  | inconclusive: 50.1 µM [inhibitor, partial curve, poor fit] | 
19 | O=C(NCCc1ccc(Cl)cc1)c1nc(-c2cccc(C(F)(F)F)c2)c2cnccn12 |  | inconclusive: 44.7 µM [inhibitor, partial curve, poor fit] | 
20 | Cc1cnc(C(=O)N2c3ccccc3CC2c2nc(C3CC3)no2)cn1 (stereo not drawn) | inactive: -25% |  | 
21 | COc1cc(OC)cc(C(=O)NC2CCCN(c3cc(-c4ccccc4)[nH]n3)C2)c1 (stereo not drawn) |  | inconclusive: 44.7 µM [inhibitor, partial curve, poor fit] | 

Row | SMILES | activity change, negative = cytotoxicity | Potency | outcome
22 | O=C(Cc1cccc(F)c1)N1CCC2(CC1)N(c1ccccc1)C(=O)CS2(=O)=O | inactive: 4.5% |  | 
23 | CC(C)Oc1ccc2c(NC(=O)CN3C(=O)CNC3=O)nn(CC(F)(F)F)c2c1 | inactive: 4.03% |  | 
24 | COc1c(F)cc(CN2CCCC3(CCNC3)C2)cc1F (stereo not drawn) |  | inconclusive: 79.4 µM [inhibitor, single point] | 
25 | Clc1ccc(-c2nnc3n2CCN(CC2CC2)C3)cc1 |  | inconclusive: 25.1 µM [inhibitor, full curve, poor fit] | 
26 | CN1C[C@@H](NC(=O)COc2ccccc2)C[C@H]1c1nc(-c2ccc(Cl)cc2)no1 |  | inconclusive: 112 µM [inhibitor, partial curve, poor fit] | 
27 | COc1ccc(-c2cc(C(=O)NCc3c(C)cc(C)[nH]c3=O)c3c(c2)N(C)CCO3)cc1 |  | inconclusive: 56.2 µM [inhibitor, partial curve, poor fit] | 
28 | CC(C)C1=NOC2(CCN(C(=O)c3ccc4c(c3)OCO4)CC2)C1 | inactive: -23.5% [at 138 µM] |  | 
29 | O=C(NCCn1cccc1-c1nc(-c2ccc3c(c2)OCO3)no1)c1ccc(Cl)s1 |  | inconclusive: 22.4 µM [inhibitor, full curve] | 
30 | Cc1ccccc1CN1CCCC(CCNS(=O)(=O)C2CC2)C1 (stereo not drawn) | inactive: -1.02% |  | 
31 | CCNC(=O)N1CC(C(=O)N2CCCC(C(=O)OCC)C2)CC(c2ccc(F)c(C)c2)C1 (stereo not drawn) |  | inconclusive: 50.1 µM [inhibitor, partial curve, poor fit] | 
32 | COC(=O)[C@@H]1Cc2c([nH]c3ccccc23)[C@H]2C[C@@H](N3CCOCC3)C[C@@H](c3ccc(F)cc3)N21 |  | inconclusive: 35.5 µM [inhibitor, partial curve, poor fit] | 
33 | CC(C)(Oc1nn(Cc2cccc(Cl)c2)c2ccccc12)C(=O)NC1CCC(O)CC1 (stereo not drawn) |  | inconclusive: 44.7 µM [inhibitor, partial curve, poor fit] | 
34 | O=C(NC1CCCCC1)C1CN(S(=O)(=O)c2ccccc2Cl)CC12CCOCC2 (stereo not drawn) |  | inconclusive: 44.7 µM [inhibitor, partial curve, poor fit] | 
35 | CCC1Oc2ccc(NC(=O)COc3ccccc3)cc2CN(C(CC)c2ccccc2)C1=O (stereo not drawn) |  | inconclusive: 14.1 µM [inhibitor, full curve] | 
36 | CCc1ccc(CNC(=O)c2cc3cn(C4CCCC4)cc3s2)cc1 |  | inconclusive: 50.1 µM [inhibitor, partial curve, poor fit] | 
37 | CC(C)COc1cc(=O)n2c(c1C(=O)NCc1ccc(C(F)(F)F)cc1)CCCCC2 |  | inconclusive: 50.1 µM [inhibitor, partial curve, poor fit] | 
38 | Cc1cc(CN(C)c2ccc(-c3nc(COc4ccccc4)no3)cn2)on1 |  | inconclusive: 56.2 µM [inhibitor, partial curve, poor fit] | 
39 | O=C(NCc1cccc(Cl)c1)c1ccc2nnc(-c3cc[nH]c3)n2c1 |  | inconclusive: 50.1 µM [inhibitor, partial curve, poor fit] | 
40 | CC(=O)Nc1ccc(CN[C@@H]2CO[C@H](CNC(=O)NC(C)C)[C@H]2O)cc1 | inactive: -8.49% [at 138 µM] |  | 
41 | O=C(NC1CCOCC1)[C@@H]1CCCN1c1ccnc2ccnn12 | inactive: -27.8% [at 138 µM] |  | 
42 | O=C1Nc2ccccc2C12CCN(Cc1ccc(C(F)(F)F)cc1)C2 (stereo not drawn) |  | inconclusive: 50.1 µM [inhibitor, partial curve, poor fit] | 

Row | SMILES | activity change, negative = cytotoxicity | Potency | outcome
43 | CC(C)c1noc(-c2cn(C3CCN(C(=O)c4ccc(N(C)C)cc4)C3)nn2)n1 (stereo not drawn) |  | inconclusive: 20 µM [inhibitor, full curve, poor fit] | 
44 | COc1ccc(CC(=O)NC2CCCc3c2[nH]c2ccc(F)cc32)cc1OC (stereo not drawn) |  | inconclusive: 10 µM [inhibitor, full curve, poor fit] | 
45 | CCN1c2cc(C(=O)Nc3cccc(F)c3)ccc2C(=O)N2CCCC21 (stereo not drawn) |  | inconclusive: 44.7 µM [inhibitor, partial curve, poor fit] | 
46 | O=C(c1ccoc1)N1CCC(c2noc(-c3ccncc3)n2)C1 (stereo not drawn) | inactive: -4.11% |  | 
47 | COc1ncccc1-c1nccc2c(=O)cc(-c3ccncc3)oc12 |  | active: 28.2 µM | 
48 | CCN1C(=O)CCN(C(=O)C2(c3ccc(OC)cc3)CC2)CC12CCOCC2 |  |  | inactive
49 | CN1c2cc(C(=O)Nc3ccc4c(c3)OCCO4)ccc2C(=O)N2CCCCC21 (stereo not drawn) |  | inconclusive: 50.1 µM [inhibitor, partial curve, poor fit] | 
50 | COc1ccccc1-n1c(=O)c(C(=O)N2CCN([S+](=O)([O-])c3cccc(C(F)(F)F)c3)CC2)nc2cccnc21 |  | inconclusive: 50.1 µM [inhibitor, partial curve, poor fit] | 
51 | COc1cc(CNC(=O)c2nc(C(O)c3ccccn3)oc2C)cc(OC)c1 (stereo not drawn) |  | active: 79.4 µM | 
52 | COCCNC(=O)CNC(=O)c1ccc(-c2cnc3ccccc3c2)cc1 | inactive: -20.3% |  | 
53 | NC(=O)COc1cccc(C(=O)N2C[C@H](CO)C[C@H](CN3CCCC3)C2)c1 | inactive: -0.267% |  | 
54 | CCN1CCN(C(=O)c2ccc3oc(-c4ccncc4Cl)nc3c2)CC1 | inactive: -1.45% |  | 
55 | CCc1noc(-c2cccn3c(CNC(=O)COc4ccccc4)nnc23)n1 | inactive: -28.9% |  | 
56 | COc1ccc(CN2C[C@@H]3C(=O)N(CCc4ccccc4)C(=O)[C@@H]3C2)c(OC)c1 |  | inconclusive: 44.7 µM [inhibitor, partial curve, poor fit] | 
57 | COc1cccc(-c2ccc(C(=O)N3CCC(NC(=O)Nc4ccccc4)CC3)cc2)c1 |  | inconclusive: 20 µM [inhibitor, full curve] | 
58 | COCCN1CCCCCC(O)c2cc(C(=O)NCC3CCCCC3)ccc21 (stereo not drawn) |  | inconclusive: 44.7 µM [inhibitor, partial curve, poor fit] | 
59 | CC(C)c1ccc(CN2CCc3ncc(C(=O)Nc4ccccc4)n3CC2)cc1 |  | active: 28.2 µM | 
60 | O=C(NCC(=O)N1CCC(c2ccccc2)CC1)c1cccc(-c2ccsc2)c1 |  | inconclusive: 50.1 µM [inhibitor, partial curve, poor fit] | 
61 | Cc1noc(-c2cn(C3CCN(C(=O)c4cccc(C(F)(F)F)c4)C3)nn2)n1 (stereo not drawn) |  |  | inactive
62 | COc1ccc(C(=O)N2CCC3(CC2)CC(N(Cc2ccccc2)C2CC2)CCO3)cc1 (stereo not drawn) |  | inconclusive: 44.7 µM [inhibitor, partial curve, poor fit] | 
63 | O=C1[C@@H]2C[C@@H](CN2C(=O)c2ccc(C(F)(F)F)cc2)Oc2ccccc2N1Cc1ccccc1 |  | inconclusive: 50.1 µM [inhibitor, partial curve, poor fit] | 
